Data reported in paper PMC12796746.
These are yes or no findings as the source states them, for the method shown.

By UniProt entry, the sequences of proteins in these tests, tags left out.
UniProt Q8N6T3: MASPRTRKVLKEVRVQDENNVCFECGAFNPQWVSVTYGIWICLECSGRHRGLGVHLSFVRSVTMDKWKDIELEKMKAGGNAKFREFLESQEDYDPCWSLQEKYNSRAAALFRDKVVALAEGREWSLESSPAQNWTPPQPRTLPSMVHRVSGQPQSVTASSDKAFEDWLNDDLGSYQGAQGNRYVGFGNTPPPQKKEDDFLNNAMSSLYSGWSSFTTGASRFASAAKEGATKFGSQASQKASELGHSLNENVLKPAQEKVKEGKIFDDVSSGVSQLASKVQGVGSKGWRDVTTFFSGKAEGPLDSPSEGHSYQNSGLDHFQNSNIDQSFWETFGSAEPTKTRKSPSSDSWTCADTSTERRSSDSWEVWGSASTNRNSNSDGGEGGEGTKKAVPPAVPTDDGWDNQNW
UniProt Q9BQE6: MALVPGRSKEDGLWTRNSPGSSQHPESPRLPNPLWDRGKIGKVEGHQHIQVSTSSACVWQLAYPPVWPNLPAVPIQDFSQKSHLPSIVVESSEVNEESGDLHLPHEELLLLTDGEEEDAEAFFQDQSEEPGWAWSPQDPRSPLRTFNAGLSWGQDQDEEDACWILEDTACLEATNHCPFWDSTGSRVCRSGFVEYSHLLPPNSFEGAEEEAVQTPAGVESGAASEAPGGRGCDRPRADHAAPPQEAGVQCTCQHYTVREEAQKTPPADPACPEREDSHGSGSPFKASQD
UniProt Q3SYC2: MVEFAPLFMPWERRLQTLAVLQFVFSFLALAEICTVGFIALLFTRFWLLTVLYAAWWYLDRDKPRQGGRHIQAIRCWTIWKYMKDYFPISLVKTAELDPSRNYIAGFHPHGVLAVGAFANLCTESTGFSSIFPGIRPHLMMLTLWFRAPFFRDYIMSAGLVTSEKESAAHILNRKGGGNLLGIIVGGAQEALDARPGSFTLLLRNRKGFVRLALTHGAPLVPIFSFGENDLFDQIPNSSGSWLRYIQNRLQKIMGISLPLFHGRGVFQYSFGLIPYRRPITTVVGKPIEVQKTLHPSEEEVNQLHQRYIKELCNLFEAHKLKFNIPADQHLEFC
UniProt Q8N4Y2: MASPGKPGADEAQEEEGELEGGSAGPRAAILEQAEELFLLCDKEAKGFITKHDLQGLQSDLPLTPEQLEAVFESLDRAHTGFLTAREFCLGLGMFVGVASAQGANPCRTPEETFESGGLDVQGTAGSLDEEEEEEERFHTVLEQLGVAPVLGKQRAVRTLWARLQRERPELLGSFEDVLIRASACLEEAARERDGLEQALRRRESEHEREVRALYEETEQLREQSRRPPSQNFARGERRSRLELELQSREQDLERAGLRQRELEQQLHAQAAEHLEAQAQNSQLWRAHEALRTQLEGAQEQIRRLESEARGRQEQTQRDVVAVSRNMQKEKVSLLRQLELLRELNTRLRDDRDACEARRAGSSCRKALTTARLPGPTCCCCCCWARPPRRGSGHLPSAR

Tests used:
Experiment in all cases: peptide or protein array; HuProt Human Proteome Microarray v2.0, full-length human proteins spotted in duplicate; V5-tagged TRPV4 protein in solution at 1 μM, 1 h at 4 °C, 150 mM NaCl, 2.7 mM KCl, 25 mM Trizma base, 0.05% Tween-20, pH 7.4; detected with Alexa Fluor 647 anti-V5; hit: z-score >= 2 (N terminus: both of 2 slides; ARD constructs: at least 2 of 3 slides); both purified
[1] = target: ADP-ribosylation factor GTPase-activating protein 1 (human) (UniProt Q8N6T3)
[2] = target: LBH domain-containing protein 1 (human) (UniProt Q9BQE6)
[3] = target: T1, Progestin and adipoQ receptor family member 3 (human) (UniProt Q6TCH7)
T1 sequence: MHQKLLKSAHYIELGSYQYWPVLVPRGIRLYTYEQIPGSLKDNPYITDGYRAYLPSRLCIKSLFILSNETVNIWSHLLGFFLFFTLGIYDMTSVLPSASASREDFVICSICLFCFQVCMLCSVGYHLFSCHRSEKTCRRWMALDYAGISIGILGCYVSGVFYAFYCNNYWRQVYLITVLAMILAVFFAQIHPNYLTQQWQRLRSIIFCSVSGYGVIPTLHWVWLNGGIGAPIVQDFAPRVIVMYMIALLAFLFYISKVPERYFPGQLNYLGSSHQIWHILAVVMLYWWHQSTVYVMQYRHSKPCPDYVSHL

Centrin-3 (human) = target: T2, Centrin-3 (human) (UniProt O15182)
T2 sequence: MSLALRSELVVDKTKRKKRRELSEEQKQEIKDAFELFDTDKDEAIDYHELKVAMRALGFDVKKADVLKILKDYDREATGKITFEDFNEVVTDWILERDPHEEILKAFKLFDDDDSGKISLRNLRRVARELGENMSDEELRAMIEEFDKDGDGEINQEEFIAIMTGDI

[4] = target: 2-acylglycerol O-acyltransferase 2 (human) (UniProt Q3SYC2)
Ermin (human) = target: T3, Ermin (human) (UniProt Q8TAM6)
T3 sequence: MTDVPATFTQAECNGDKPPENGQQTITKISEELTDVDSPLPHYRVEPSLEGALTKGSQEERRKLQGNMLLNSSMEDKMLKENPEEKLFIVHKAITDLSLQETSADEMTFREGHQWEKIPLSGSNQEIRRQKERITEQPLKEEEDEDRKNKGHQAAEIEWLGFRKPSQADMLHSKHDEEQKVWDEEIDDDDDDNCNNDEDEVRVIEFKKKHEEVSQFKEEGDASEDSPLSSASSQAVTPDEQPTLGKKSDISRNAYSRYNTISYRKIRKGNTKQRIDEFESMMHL

[5] = target: Short coiled-coil protein (human) (UniProt Q9UIL1)
[6] = target: EF-hand calcium-binding domain-containing protein 4A (human) (UniProt Q8N4Y2)

Measured: binding

TRPV4^R269C-ARD (from UniProt Q9HBA0 149-397) (domain or fragment)
no binding (tested: 1 μM): all assays above

TRPV4^R315W-ARD (from UniProt Q9HBA0 149-397) (domain or fragment)
no binding (tested: 1 μM): all assays above
